According to the supplement of paper PMC11417369:
± gives the standard deviation of the averaged measurements. Some of the results follow.

system: PfAP2-I AP2 domain 3 (GST-tagged); assay: gcPBM binding intensity (ln(normalized median fluorescence intensity)); higher = stronger DNA binding
Method in brief: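 For binding intensity, the highest Masliner-normalised natural-log median intensity across replicate spots of either probe orientation was taken. Protein bound to the array was stained with Alexa488 anti-GST antibody and scanned at 488 nm. The protein, GST-tagged P. falciparum DNA-binding domains from E. coli at about 25 μg on average, had been applied for 1 h to an Agilent 4 × 180k array of primer-extended double-stranded 36-bp intergenic genomic probes and negative controls.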

Sequence | gcPBM binding intensity (ln)
GAATATTCAACATAATGTACAAGTATTCATTTCTTT [XGTACX_site7860] | 7.55 ± 0.49
TAATAAACTTAAAAATGTACATATATTTATTATTAC [XGTACX_site4321] | 7.49 ± 0.45
AAAATTCATAAATACACACACGCACATATATATATA [CACACA_site4227] | 9.36 ± 0.099
CAAAAATAAAAGAAATGTACAAAAAATAATAAAAAA [XGTACX_site6597] | 7.84 ± 0.76
AAATATATATTCATGTGTACACACAAAAAAAAATAA [XGTACX_site4552] | 8.17 ± 0.45
AAAAATTTTCAAGTGTGTACATATTTTCATTTAACA [XGTACX_site6186] | 7.96 ± 0.42
ATGTATATATTTTTATGTACATATTTTTAATTTATA [XGTACX_site2982] | 7.47 ± 0.18
CATACATATACTTTGTGTACATATATATATTATATA [XGTACX_site97] | 7.88 ± 0.16
TAATAAAAAATTAAAAAAAATAAAAATAAAAATAAA [GTGCAC_negctrl_site78] | 7.73 ± 0.58
TTTTTATTTAGCTAAGCATGCTAACGATGACACTTC [TGCATGCA_site79] | 7.65 ± 0.71
TTTATACTTTTAAATTGTACTATAAAAAGGAATACA [XGTACX_site2537] | 7.71 ± 0.42
AAGAAAAAGTATCCTCTATCTTTATATAAACTATTA [TGCATGCA_negctrl_site2] | 7.58 ± 0.57
TGCCATCATATCATAGGTACACAAACATATAAAGAA [XGTACX_site4137] | 8.22 ± 0.82
AAATGTTCAGAAACTATTATAAAAATGGAATAATAT [CACACA_negctrl_site1544] | 7.67 ± 0.68
GTATTATATTTTAATACACACCCAAATATTAAAAAG [CACACA_site8968] | 8.01 ± 0.5
TTATGCTCAAAGAAAAGTACATAAATAAAAGTATAT [XGTACX_site7365] | 8.13 ± 0.25
TTAACAAATAAATGCACACATATATATAAATAATAT [CACACA_site28] | 9.52 ± 0.35
CTTAATATGGATATTGCATGTAGAACATGAACAATA [TGCATGCA_site760] | 7.58 ± 0.65
TAAATATTATATTTATGTACATAAGTTTTTTTTAAT [XGTACX_site3559] | 7.59 ± 0.2
TATATGTAGATTAAACGTACTTACAACGGAATTATC [XGTACX_site3036] | 7.85 ± 0.61
AAATTACTGTAAAAAAGTACAGAAGTTCTTATTTTT [XGTACX_site7416] | 7.57 ± 0.43
GTTCATATAATAAAATGTACATAATATATTATATAT [XGTACX_site7623] | 7.76 ± 0.45

Sequence | gcPBM binding intensity (ln)
TATATCTATTTCAAATGTACTTATATGATTCTTATA [XGTACX_site6277] | 7.67 ± 0.2
AGCTACAAAAATTAATATATATATGTATAGTTATAC [TGCATGCA_negctrl_site531] | 7.38 ± 0.59
AGTTTAATTTTGTATACACACATTTGAATTATTAAT [CACACA_site7625] | 7.92 ± 0.71
ATATATTTATATTTTTGTACCCAAAATTGTTTGATG [XGTACX_site3581] | 7.72 ± 0.49
TAAAAGTTGAAGCACACACACAAAAGAAATACAATA [CACACA_site6649] | 8.28 ± 0.28
GTATACAACATATGAACACACAAAATATTTTTTTTT [CACACA_site2928] | 7.74 ± 0.42
TATCTCCACAAAAGATGTACTCATATTAATTTATAA [XGTACX_site3535] | 7.75 ± 0.26
TTAAAGCTTGCATATACACACATACATAAATTCATA [CACACA_site7208] | 7.83 ± 0.61
TTTTTTTTTTTTTATTGTACATACTTTTAAATATAT [XGTACX_site4303] | 8.16 ± 0.6
ATAAATAAAGGACACACACACACACTAATAAAAAAA [CACACA_site8840] | 8.11 ± 0.27
TATATAATATATTTATGTACTCACAATGGGGTCTAC [XGTACX_site2691] | 8 ± 0.31
TTTGTTATATTTAATACACACATATTATAAACACAT [CACACA_site7703] | 8.07 ± 0.34
TATGAAAAGTAAAGTACACACAGGAAAAAAAAAAAA [CACACA_site1749] | 8.16 ± 0.83
ATATATATATATATATGTACATAATGCATATAATAT [XGTACX_site6142] | 9.25 ± 0.47
GAAGGAAAAGATACGATAAAATAAGATATTAATTTA [GTGCAC_negctrl_site419] | 7.28 ± 0.73
TTAATACTTTTTTCTGTACACACTTGATTTACTATA [CACACA_site2799] | 8.09 ± 0.57
TAAACACCCATACATACACACATACATACACCCATA [CACACA_site5125] | 8.08 ± 0.2
TTCTTCAATATATTCTTACACACTTAAAAAAAAAAA [CACACA_site228] | 7.86 ± 0.54
AAGCTTAAAAATGGGGGTACGTCATAGGGATTCAAC [XGTACX_site8080] | 8.48 ± 0.33
TTTGACACAATATTTTGTACGAAACTATTAATTCAA [XGTACX_site4853] | 7.47 ± 0.58
AATATATAAACATATACACACAAAAACATATATATA [CACACA_site4855] | 7.98 ± 0.75
ATGTTTTCAAAAATAAAACATATAAATAAATAAATA [TGCATGCA_negctrl_site226] | 7.75 ± 0.7

Sequence | gcPBM binding intensity (ln)
AATGTACACGCACCCACACACAAACAAATATAAATA [CACACA_site7319] | 9.4 ± 0.43
TTACGAATGAATATATGTACATATATATATATATAT [XGTACX_site3790] | 9.46 ± 0.38
TTGCTTTTCATTTATTGTACATACCCAGTAGGATAA [XGTACX_site3939] | 8.17 ± 0.41
GACATAGTATTAAGTTGTACATATATAAAAATAAAT [XGTACX_site1583] | 7.98 ± 0.13
TTATAATACCTACAAAGTACAAACTTAAATATGAAC [XGTACX_site5684] | 7.68 ± 0.39
CAACAACAAATGAGAAGTACATAAATATTAACAATA [XGTACX_site4625] | 7.68 ± 0.4
ATATGTTTTAAGTGTACACATATAATGTATTTTGTT [CACACA_site4929] | 8.11 ± 0.45
AACCTATCTATAGGAACAATATATATATATATAATT [CACACA_negctrl_site1707] | 7.51 ± 0.63
TATTATGCTATTTAATGTACGGAATTTATATATATA [XGTACX_site564] | 8.49 ± 0.56
TTGCTCATTGAAATTATACACACCAAATATATAAAT [CACACA_site2482] | 7.88 ± 0.4
TAAAAAAAAACATGATGTACATAAAATTTTTTACTT [XGTACX_site7056] | 7.54 ± 0.53
AAAATATATAAACGCACATATATTTATGTATATATA [CACACA_negctrl_site163] | 8.42 ± 0.23
AAAAGGGAAAAAATTAAAATTATATATATATATATG [CACACA_negctrl_site137] | 7.62 ± 0.71
TTATTAGAGATGTTAAGATATAGGGATAATTTCGAT [XGTACX_negctrl_site395] | 7.69 ± 0.69
TACATATATTTAAGGAGTACAAAAAATAATGATAAA [XGTACX_site3539] | 8.15 ± 0.49
CATACACAGAAACACACACACATATATACATATATA [CACACA_site1094] | 7.67 ± 0.4
TCATATATATTGAAATGTACTTATTTTTTCCTCATA [XGTACX_site6526] | 7.58 ± 0.38
AAAAAAAAAATTATATATATATCCCTTATTTTTTCT [TGCATGCA_negctrl_site151] | 7.54 ± 0.36
TATACATAGAAACACACACACATAAATAAATATATA [CACACA_site1342] | 7.76 ± 0.3
CCTTAAATAATATATTCACACAATATAACAAAAATT [CACACA_site4892] | 7.74 ± 0.59
TGGTATATAAAACACACACACATATGTATATATATA [CACACA_site926] | 8.73 ± 0.25
AAAAAAAAGAATTAGGCACACAATTTTAATATAGGA [CACACA_site1522] | 8.03 ± 0.65

Sequence | gcPBM binding intensity (ln)
GCATACATCAAGCACACACACACACGCACACGCACA [CACACA_site6311] | 8.59 ± 0.55
ACTACGAATGGTAGAGTGCAGTCTGGAGAAGAGTAC [GTGCAC_site9685] | 9.21 ± 0.3
TTATGTTTCATAAAAAATTAATCAAACATATATAAG [CACACA_negctrl_site666] | 7.28 ± 0.2
TTATGGATGGACAATAATAAAATTTTTACTTTTATT [CACACA_negctrl_site908] | 7.62 ± 0.49
GTGAAGTTCAAAATATGTACTTATGTATGTATTTTT [XGTACX_site165] | 7.57 ± 0.36
TATAAGAAATAAAACCTGATTATAAACCTGTAACCA [CACACA_negctrl_site1302] | 7.46 ± 0.53
TAAATATAACAGAATAATATGTGGATTAATAAATGA [CACACA_negctrl_site438] | 7.81 ± 0.59
AAAAAAAAAAAAAAAACACACATGTATACTAGAATA [CACACA_site7108] | 8.61 ± 0.46
TTAAGTTACAATTCTCGTACACATTAAAAGAAAATT [XGTACX_site699] | 7.72 ± 0.43
ATATAATATGTTGAATGTACTTAAAAAAATGTATCT [XGTACX_site5385] | 7.72 ± 0.46
TTACAAATGTAGAAAAGTACATATAATAATAATTTA [XGTACX_site3044] | 7.66 ± 0.53
GGTAGAAAATCAGTTAAACACACACCGAAAAAAAAA [CACACA_site8934] | 8.06 ± 0.6
ATTTGTATAATAAGTTGTACAATTCTTACAATATAA [XGTACX_site4164] | 7.77 ± 0.26
AAAAAAAAAAAAAGCACACACACATATGCGTATATA [CACACA_site953] | 8.46 ± 0.42
TTTAAGCGTTCACTGCTGCACTTTTATGTTGTGACC | 8.71 ± 0.35
ATGGATAATAATAAGTGTACACATATATTTAGAAGA [XGTACX_site244] | 8.13 ± 0.38
TTTGTTCAATTTACATGTACAGATATAATCTAACAT [XGTACX_site370] | 7.68 ± 0.34
ATTTTTATTTTATATACACACAATAATAATATAATA [CACACA_site4015] | 7.83 ± 0.43
TCTATTAAAACAAATTGTACTTATTGATAAAGAATA [XGTACX_site3645] | 7.795 ± 0.007
TCCTATTTTATATAATGTACATAAATATATTACATA [XGTACX_site2720] | 7.85 ± 0.34
AAGAGCAACCAAATAGAAAAAGGAAAATAAAAGGAA [CACACA_negctrl_site100] | 7.56 ± 0.71
AAATTTTTTTTTTAATTTTTTATTTAAAAAAAATAT [TGCATGCA_negctrl_site174] | 7.42 ± 0.33
